# Measurements as given in patent publication US20240199762A1 (PHILOGEN S P A, published 2024).
# T1: human FAP-ECD (extracellular domain) recombinant fragment containing a C-terminal His6 tag (human, UniProt Q12884 26-760, randomly biotinylated with NHS ester-activated biotin (as used on the SA chip and Streptawell plates))
# T1 construct: also called biotinylated human FAP-ECD; biotinylated human FAP
# T1 sequence: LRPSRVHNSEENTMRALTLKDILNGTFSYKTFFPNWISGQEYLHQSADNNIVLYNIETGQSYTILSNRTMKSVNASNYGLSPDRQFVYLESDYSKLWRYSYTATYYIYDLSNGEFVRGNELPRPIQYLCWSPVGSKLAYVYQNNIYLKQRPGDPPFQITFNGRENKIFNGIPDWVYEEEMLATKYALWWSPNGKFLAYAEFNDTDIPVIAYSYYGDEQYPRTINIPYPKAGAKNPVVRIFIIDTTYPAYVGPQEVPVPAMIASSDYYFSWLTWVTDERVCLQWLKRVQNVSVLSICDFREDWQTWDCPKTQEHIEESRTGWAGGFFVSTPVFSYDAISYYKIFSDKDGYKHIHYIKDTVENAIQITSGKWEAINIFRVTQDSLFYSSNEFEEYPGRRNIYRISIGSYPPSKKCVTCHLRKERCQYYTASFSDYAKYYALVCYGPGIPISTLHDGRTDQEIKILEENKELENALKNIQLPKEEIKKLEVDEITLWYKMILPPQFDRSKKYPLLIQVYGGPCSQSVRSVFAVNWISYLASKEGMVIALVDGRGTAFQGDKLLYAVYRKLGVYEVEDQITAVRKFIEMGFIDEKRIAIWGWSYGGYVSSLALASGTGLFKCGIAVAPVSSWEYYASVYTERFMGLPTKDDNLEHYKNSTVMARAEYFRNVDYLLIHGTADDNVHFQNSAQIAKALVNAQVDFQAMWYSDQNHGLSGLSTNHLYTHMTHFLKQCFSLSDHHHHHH
# B1: anti-FAP antibody C5 in scFv format (scFv)
# scFv: [about 100 residues not given here]RLAWFDYWGQGTLVTVSSGGGGSGGGGSGGGGEIVLTQSPGTLSLSPGERATLSCRASQSVSSSYLAWYQQKPGQAPRLLIYGASSRATGIPDRFSGSGSGTDFTLTISRLEPEDFAVYYCQQSGKGPLTFGQGTKVEIK
# notes: The monomeric scFv was used in BIAcore; also called C5 scFv; scFv(C5)
# Molecular target: T1, human FAP-ECD (extracellular domain) …
# Test: SPR, BIAcore X100, biotinylated human FAP-ECD on SA chip (1500 RU), monomeric scFv injected
# Experimental: Affinity measurements of the C5 and 7NP2 scFv antibodies were performed by Surface Plasmon Resonance using BIAcore X100 instrument with a biotinylated human FAP-ECD coated SA chip. A final coating of 1500 RU was achieved.
# Samples were injected at a concentration of […], 450 nM and 225 nM for the C5 scFv and of 1350 nM, 675 nM, 338 nM and 170 nM for the 7NP2 scFv. No regeneration of the SA chip was performed between each run, scFvs were left to detach from the antigen. KD measurements were assessed using the BIAevaluation 3.2 software.
binder,measurement,value
B1,Kd,130 nM
